The values that follow come from PubChem BioAssay AID1508624 (National Center for Advancing Translational Sciences (NCATS), 2021).

In all, about 48,000 compounds went through this assay and about 120 (0.25%) were called active. Not shown: some 4% with an inconclusive outcome. Calls come from the whole dose curve; as a rule, active = well fitted activation curve with a large enough effect; inconclusive = small, poorly fitted or top-dose-only effect, or another doubt; inactive = no such curve, though single readings can be large or run the other way. This is one part of the list.

A short description of the test: Primary qHTS for Identification of Small Molecule Activators of Huntingtin-Antisense Promoter Activity. Note: nearly all actives have a fitted effect of over 55% in size. The note with it: HEK293 HTT-AS promoter firefly luciferase reporter (activity 0% = vehicle and -100% = no light), 24 h; series mostly up to 57.5 µM; activity change, positive = activation: at the top concentration. Put shortly: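 HEK293 Fluc reporter, 2,500 cells/well, 24 h pre-culture; cpds up to 57.5 uM final, 24 h 37 degrees C; Dual-Glo, 10 min RT; normalized vehicle = 0%, zero RLU = -100%.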
`COC(=O)c1cccnc1-n1c(=O)c2cccnc2n(CC(=O)Nc2cccc(C(F)(F)F)c2)c1=O`: the “activity change, positive = activation” value was inactive: -23.2%.
On to `COc1cc(C)ccc1OCCSc1nnc(-c2cccs2)o1`, for which the “activity change, positive = activation” value is inactive: 2.27%.
In the case of `FC(F)(F)c1cccc(N2CCN(Cc3nnc(-c4ccccc4)o3)CC2)c1`, the “activity change, positive = activation” value is inactive: -12.1%.
On to `CCOc1ccccc1CNC(=O)c1ccc(Cn2c(=O)c3cccn3c3cccnc32)cc1`, for which the “activity change, positive = activation” value is inactive: -21.7%.
In the case of `CC(C)c1ccc(-c2noc(SCC(=O)N3CCCCC3)n2)cc1` it was inactive: 17.2%; in that of `CCCN(CCC)CCCNC(=O)c1nn(C)c2c1CS(=O)(=O)c1ccccc1-2`, inactive: -10.8%.
`O=c1c2ccccc2nc2sc(Nc3cccc(C(F)(F)F)c3)nn12`: the “activity change, positive = activation” value was inactive: 13.7%.
In the case of `COC(=O)c1cc(Cl)ccc1NS(=O)(=O)C(F)(F)F`, the “activity change, positive = activation” value was inactive: -1.74%.
On to `CCN(CC)c1ccc(C2C(C(N)=O)=C(C)Nc3nc(SCc4ccccc4)nn32)cc1` (configuration not stated), for which the “activity change, positive = activation” value was inactive: -56.3%.
Consider `CSc1cccc(NS(=O)(=O)c2ccc3[nH]cc(C(=O)N4CCCCCC4)c(=O)c3c2)c1`, for which the “activity change, positive = activation” value is inactive: -2.46%.
Turning to `Cc1cccc(Cc2c(C)nc3nc(SCC(=O)NC4CCCCC4)nn3c2C)c1`, the “activity change, positive = activation” value is inactive: -15.8%.
On to `Fc1ccc(-c2noc3ncnc(NCc4cccc(Cl)c4)c23)cc1`, for which the “activity change, positive = activation” value was inactive: -33.4%.
Consider `CCOC(=O)c1nnc2c(-c3ccc(F)cc3)c(C)nn2c1N`, for which the “activity change, positive = activation” value was inactive: 1.04%.
In the case of `COc1ccccc1CNC(=O)c1cnn(-c2ccc(F)cc2F)c1C1CCN(C(=O)OC(C)(C)C)CC1`, the “activity change, positive = activation” value is inactive: -20.2%.
Regarding `Cc1ccc(N2CC(NC(=O)Cc3ccc(F)cc3)CC2=O)cc1C` (configuration not stated), the “activity change, positive = activation” value was inactive: -9.03%.
As to `COCCN1CN=C(NS(=O)(=O)c2ccc(C)cc2)NC1`, the “activity change, positive = activation” value is inactive: -12.5%.
On to `COc1ccc(-c2noc(CCC(=O)Nc3ccccc3Cl)n2)cc1OC`, for which the “activity change, positive = activation” value is inactive: -38.9%.
In the case of `CCOCCc1nn2c(=O)cc(COC(=O)C(CC)c3ccccc3)nc2s1` (configuration not stated), the “activity change, positive = activation” value is inactive: -14.6%.
For `Cc1cccc(C(=O)Nc2ccccc2SCc2cc(=O)c3cccc(C)c3[nH]2)c1`, the “activity change, positive = activation” value was inactive: -23.6%.
Consider `Cc1nnc(N2CCN(c3ccccc3F)CC2)c2c1nnn2Cc1ccccc1`, for which the “activity change, positive = activation” value is inactive: -3.36%.
For the compound `COc1ccc(NC(=O)CCn2cccn2)cc1OC`, the “activity change, positive = activation” value is inactive: -10.5%.
Consider `CCOc1ccc(NC(=O)Cn2c(=O)n(CCC(=O)NCCc3ccccc3)c(=O)c3ccccc32)cc1`, for which the “activity change, positive = activation” value was inactive: -8.13%.
On to `CCCn1cc(S(=O)(=O)c2ccc(CC)cc2)c(=O)c2ccccc21`, for which the “activity change, positive = activation” value was inactive: -12.1%.
In the case of `Cc1ccc2occ(-c3cc(-c4ccc(Cl)cc4)nc4c3COc3ccccc3-4)c(=O)c2c1`, the “activity change, positive = activation” value is inactive: -9.88%.
`Cc1ccc(N(C)C(=O)C2CCCN(c3ncnc4c3nc3n4CCCCC3)C2)cc1C` (configuration not stated): the “activity change, positive = activation” value is inactive: -37.6%.
As to `Cc1ccc(Cn2c(=O)n(Cc3ccccc3Cl)c(=O)c3ccccc32)cc1`, the “activity change, positive = activation” value is inactive: -2.12%.
As for `CCCCc1nn2c(=O)cc(COC(=O)c3ccc(NC(=O)C4CCCCC4)cc3)nc2s1`, the “activity change, positive = activation” value is inactive: 12.3%.
`COC(=O)CC1Oc2ccccc2-n2cc(-c3ccc(Cl)cc3)nc21` (configuration not stated): the “activity change, positive = activation” value is inactive: -8.63%.
Regarding `Cc1ccccc1C(=O)Nc1nnc(S(=O)(=O)N2CCCCCC2)s1`, the “activity change, positive = activation” value was inactive: -10.4%.
Under `COc1ccc(CNC(=O)Cc2csc3nc(-c4ccc(C)cc4)cn23)cc1` stands inactive: 16.9%.
With `Cc1ccc(Cl)cc1N1CCN(C(=O)C2CCN(Cc3nc(-c4cccc(Cl)c4)oc3C)CC2)CC1`, the “activity change, positive = activation” value is inactive: -28.6%.
With `CCc1nn2c(=O)cc(COC(=O)C(c3ccccc3)c3ccccc3)nc2s1`, the “activity change, positive = activation” value is inactive: -12.6%.
In the case of `Cc1cccc(-c2nc(SCC(=O)Nc3ccc4c(c3)OCCO4)c(-c3ccccc3)[nH]2)c1`, the “activity change, positive = activation” value was inactive: -10.7%.
Regarding `COc1ccc(-n2nc(C(=O)NCCc3cccc(C)c3)c3c4ccccc4n(C)c3c2=O)cc1Cl`, the “activity change, positive = activation” value was inactive: -9.24%.
Consider `CCOC(=O)c1ccc(Nc2cc(-c3ccccc3)nc(C)n2)cc1`, for which the “activity change, positive = activation” value was inactive: -13.6%.
On to `Cc1cc(C)cc(N(CC(=O)NCc2ccccc2Cl)S(=O)(=O)c2c(C)noc2C)c1`, for which the “activity change, positive = activation” value was inactive: -21.3%.
Take `CCOC(=O)Cn1c(=O)n(-c2ccccc2OC)c2nc(-c3ccccc3C)nc(C(N)=O)c21`: the “activity change, positive = activation” value was inactive: -19.3%.
For `O=C(COc1ccccc1)Nc1ccccc1C(=O)OCc1cc(=O)n2nc(C3CC3)sc2n1`, the “activity change, positive = activation” value is inactive: 8.47%.
For the compound `CCOc1ccccc1NC(=O)Cn1nnc(C(=O)Nc2ccc(C)c(C)c2)c1N`, the “activity change, positive = activation” value is inactive: -8.17%.
For `Cc1c(C(=O)N2CCC(C)CC2)c(S(=O)(=O)N2CCN(c3ccc(Cl)cc3)CC2)c(C)n1C`, the “activity change, positive = activation” value is inactive: -17.1%.
In the case of `Cc1ccc(Cl)cc1N1CCN(C(=O)C2CCN(Cc3nc(-c4ccc(Cl)cc4)oc3C)CC2)CC1`, the “activity change, positive = activation” value is inactive: -32.2%.
Regarding `CC(C)(C)OC(=O)N1CCC(c2c(C(=O)NC3CCCCC3)cnn2-c2cccc(Cl)c2)CC1`, the “activity change, positive = activation” value was inactive: -26.2%.
`Cn1nccc1C(=O)NCc1ccc2c(c1)CCN2C(=O)c1ccccc1`: the “activity change, positive = activation” value was inactive: -6.14%.
Under `COc1ccc(-c2nc3sc(CCNC(=O)C(=O)Nc4c(C)cccc4C)c(C)n3n2)cc1` stands inactive: -3.69%; under `CC1CCCN(CCCNC(=O)CN2C(=O)CSc3ccc(S(=O)(=O)N4CCOCC4)cc32)C1` (configuration not stated), inactive: -10.6%.
As for `O=C(Cn1c(=O)oc2cc(S(=O)(=O)NC3CCCC3)ccc21)Nc1ccc(F)c(F)c1`, the “activity change, positive = activation” value is inactive: -26.3%.
As for `Cc1ccc(Cl)cc1N1CCN(S(=O)(=O)c2cc3[nH]c(=O)c(=O)[nH]c3cc2C)CC1`, the “activity change, positive = activation” value was inactive: -26.7%.
`COc1ccccc1CNC(=O)c1cnn2c(C)c(Cc3ccc(F)cc3)c(C)nc12`: the “activity change, positive = activation” value is inactive: -10.4%.
Under `Cc1ccc(C(c2sc3nc(-c4ccco4)nn3c2O)N2CCN(Cc3ccccc3)CC2)cc1` (configuration not stated) stands inactive: -12.1%; under `COc1cccc(C2CC(=O)Nc3c2c(=O)nc2c(C)cccn32)c1OC` (configuration not stated), inactive: 0.13%; under `CCOC(=O)c1ccc(NC(=O)CN2C(=O)COc3ccc(Cl)cc32)cc1`, inactive: -23.1%.
In the case of `COc1ccc2c(c1OC)C(=O)OC2[C@H]1c2c(cc3c(c2OC)OCO3)CCN1C` (some centres not stated), the “activity change, positive = activation” value was inactive: -29.2%.
In the case of `CC(=O)c1ccc(N2CCN(S(=O)(=O)c3ccc(-c4cc(C)no4)s3)CC2)cc1` it was inactive: -31.5%.
With `Cc1cc(C)c(S(=O)(=O)n2cnc(C)c2)c(C)c1`, the “activity change, positive = activation” value was inactive: -7.11%.
As for `CC(=O)NC(C)c1ccc(Oc2ccc(OC(C)C)cc2)cc1` (configuration not stated), the “activity change, positive = activation” value is inactive: 0.261%.
In the case of `Cc1ccc(-c2ccc(=O)n(CC(=O)NCc3ccc(F)cc3)n2)cc1` it was inactive: -6.98%; in that of `CCC(C)NC(=O)C1CCC(CNS(=O)(=O)c2ccc(Cl)cc2)CC1` (configuration not stated), inactive: -3.41%; in that of `COc1ccc(-c2nc3n(n2)C(=O)CC(c2ccc(Cl)cc2)S3)cc1` (configuration not stated), inactive: -6.09%.
For `CCn1c2ccccc2c2cc(NC(=O)COc3ccc(C)c(C)c3)ccc21`, the “activity change, positive = activation” value is inactive: 8.41%.
As for `CCOC(=O)c1ccc(NC(=O)CC2NCCNC2=O)cc1` (configuration not stated), the “activity change, positive = activation” value is inactive: 11.7%.
In the case of `Cc1ccc2nc3c(cc(C(=O)NC4CCCCC4)c(=N)n3C(C)C)c(=O)n2c1`, the “activity change, positive = activation” value is inactive: -5.28%.
For `CCOC(=O)C1CCN(S(=O)(=O)c2ccc3c(c2)NC(=O)C(C)C(=O)N3)CC1` (configuration not stated), the “activity change, positive = activation” value is inactive: -3.71%.
